# ± gives the standard deviation of the averaged measurements. The list shows a part of the results.
# Test system: PfAP2-LT AP2 domain (GST-tagged)
# Assay: gcPBM binding intensity (ln(normalized median fluorescence intensity)); higher = stronger DNA binding
# In short: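 GST-tagged P. falciparum DNA-binding domains produced in E. coli were incubated for 1 h on an Agilent 4 × 180k array of primer-extended double-stranded 36-bp intergenic genomic probes with negative controls. Binding intensity is the highest Masliner-normalised natural-log median intensity across replicate spots of either probe orientation, with bound protein detected by Alexa488 anti-GST antibody at 488 nm.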
row,Sequence,gcPBM binding intensity (ln)
1,TATTAATTATTATGACATACATATCAGTTATTAAAA [CACACA_negctrl_site600],8.24 ± 0.45
2,GAGAGGAACATTATATGTACATATTAATTCTAAAAT [XGTACX_site5433],8.77 ± 0.47
3,ACAAATAAGTTTTATACACACATATAAGTAAATACA [CACACA_site4157],8.93 ± 0.43
4,ACAATATTTTTTTATAAACACACATATATATAAATA [CACACA_site9175],8.6 ± 0.42
5,TATAGTGATATATACACACACTTGTCTTGTAAAAAT [CACACA_site6594],9.07 ± 0.35
6,TAGACTCCCAGACACACACACACACCCATATAATAT [CACACA_site593],10.2 ± 0.35
7,TTTTTTTTTTTTGGTGCATGCACATTTTGTTTTTTT [TGCATGCA_site570],9.04 ± 0.46
8,TATTATTATTGTTGATGTACATTTAATATAATATAT [XGTACX_site4482],8.63 ± 0.28
9,TTTAATATATATATGTGTACATATAAATTATATATA [XGTACX_site8511],8.39 ± 0.54
10,GTACTTATTAAATGTGCATGTTGATATATAAATGTA [TGCATGCA_site902],8.69 ± 0.33
11,TTTATATTTTAAAAAATAATATTATGTATTTTTAAA [TGCATGCA_negctrl_site507],7.94 ± 0.45
12,ATATACATAAAAATATGTACATATAAAATATATACA [XGTACX_site2394],8.86 ± 0.39
13,ATATAATAAACGTGTACACAATTAAATTATTATATA [CACACA_site5017],8.88 ± 0.41
14,TTATTAAAAATGTATTGTACAAATTTATTAGTAAAT [XGTACX_site4799],8.38 ± 0.42
15,TTTTAATTGTTTATTTGTACATATGTTTAATTATAT [XGTACX_site571],8.96 ± 0.59
16,ATTTATACAAAGCTTCGTACATAATGTATTCTTTTT [XGTACX_site2166],8.93 ± 0.52
17,TTTTTTGCTTGGGTGAGAAAAAATAAAATAAAGGAA [TGCATGCA_negctrl_site139],8.15 ± 0.45
18,TTTTTAAAAAAATTGATTCTTTTTCTTTTTTTTCTT [XGTACX_negctrl_site127],8.09 ± 0.59
19,TTATAATCTTTTGGTTCTATAGAATATCAAAAAATA [CACACA_negctrl_site1149],8.13 ± 0.4

row,Sequence,gcPBM binding intensity (ln)
1,AAAAAATAAAAGGAAAAAAAAAAAAAAAAAAAAAAT [CACACA_negctrl_site635],8.64 ± 0.49
2,TATTATTGTCATTTTTTTTTTTTTTTTTTCTATTTC [XGTACX_negctrl_site114],8.55 ± 0.54
3,AGCACCCACCAACACACACACACACCCACCCACCGA [CACACA_site368],10.22 ± 0.028
4,TTTTGCGAAAAAAGGTGTACTGTAAATATATTGAGG [XGTACX_site8941],8.6 ± 0.34
5,AAATAAATAAATATACGTACATATATATAATATATA [XGTACX_site5124],8.91 ± 0.42
6,TACGTAAATTTTAATACACACTATAGGATATTCTGC [CACACA_site5418],8.9 ± 0.4
7,TTTTTTTTGATTTGTTTGCACTTATTTCCACAATAA,8.79 ± 0.45
8,TTAATATGTTTAACCATTTTACATAAATTGATTTGT [CACACA_negctrl_site1100],8.86 ± 0.5
9,TTTTTTTTTAATTACATAAAATAAAAATATTTCTAT [CACACA_negctrl_site584],8.1 ± 0.51
10,ATTTTATTTATATACACACACATATATATATTATAT [CACACA_site822],9.32 ± 0.37
11,ATATATATATATAGGGGTACTTAAATTTTACTAACC [XGTACX_site1832],9.35 ± 0.085
12,AATAAATAAATAAATTAATATATATATATATATAGA [CACACA_negctrl_site1661],8.6 ± 0.42
13,AAAGGGTTACAAGAGGAACACACAAAAAAATAAATA [CACACA_site8406],9.03 ± 0.83
14,TTTATTAATGGACACACACACACACCCAAAATAAAA [CACACA_site4294],10 ± 0.13
15,TCATATAAAACATGCACACATATGTACTCTTATAAA [CACACA_site3748],8.98 ± 0.3
16,TATATTTATATATGTTGTACTCTCCAATAATATTCC [XGTACX_site4438],8.76 ± 0.52
17,ATTAAATGATCAAGGTGTACATTAACAAGAACTATA [XGTACX_site7022],8.98 ± 0.49
18,TATATATTTATATTTACACACAGTTACTATGTAGAT [CACACA_site3292],9.12 ± 0.34
19,TGAATAAAAAAACCTAGTACTTAAATAAGTATATTT [XGTACX_site7690],8.59 ± 0.54

row,Sequence,gcPBM binding intensity (ln)
1,TATATATATACATACGTACACACAAATATTAAAATA [CACACA_site1950],9.03 ± 0.45
2,TAAAAAAAATAGAAACGTACATAAAAAATAAATAAT [XGTACX_site5796],9.04 ± 0.42
3,TATATGTGACATGAATGTACCCAAATTATATAAGAA [XGTACX_site3937],8.77 ± 0.53
4,CATAGGAACATAAGTTGTACGCTATACATACAACAT [XGTACX_site1054],9.05 ± 0.45
5,TATTCTTACACGTTTGCACACTAAAATATATATATA [CACACA_site435],9.01 ± 0.39
6,ATTTAATATATTTATTGTACATATAAAATAAAAGAA [XGTACX_site2413],8.55 ± 0.35
7,ATAAAATGTATATGAATGCACTTGAAGTTTTTTTTT,8.54 ± 0.52
8,ATAAATCCATGGGTAGTGCGCATTTTTTTTTTTTTT [GTGCAC_site9732],9.17 ± 0.38
9,TTAGTGTATTAATTCTCACACACTAAGAAAAAAAAA [CACACA_site3878],8.72 ± 0.43
10,TCTCCTTGTTCCTTTTTTTTAAAAAAAAACATTAAA [CACACA_negctrl_site679],8.47 ± 0.52
11,TAATAATAATACCAGCGTACATTTTTCTTTCCTACG [XGTACX_site4056],8.97 ± 0.47
12,TTCCTTAATCAATATTGTACTTTTTATAAATTTAGT [XGTACX_site3678],8.72 ± 0.42
13,TCTGTGTTTTTGGGTACACACAAATAGCTTGTATAT [CACACA_site4002],9.14 ± 0.38
14,TGAAAATTAATAAAAAGTACATAGTCAGATTTGTGA [XGTACX_site2450],8.71 ± 0.49
15,TATTTTTTCTTAAACACACACATATATATATATAAT [CACACA_site5567],9.06 ± 0.38
16,CTAAACAAAAAATAATGTACACATACATAAAAAATA [XGTACX_site1808],8.89 ± 0.49
17,TATTGAAAAAATAAAAGTACAAACTCTTATAATATG [XGTACX_site8196],8.55 ± 0.35
18,CCCGAACAAACAAATAAACACACAAAAAAAAATATA [CACACA_site8540],9.15 ± 0.47
